Article PMC4336329 (PLoS ONE, 2015)
Hit rate of the full screen: of about 310,000 compounds, about 14,000 (4.5%) showed an effect of 50% or more. Effects have a minus sign here. Some of the results follow.

These compounds were tested against human ether-à-go-go-related gene (hERG) potassium channel (human, UniProt Q12809) (assay: primary screen, population patch clamp on CHO cells stably expressing hERG).
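Also: peak tail current of the secondary pulse compared with the same well before compound.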

human ether-à-go-go-related gene (hERG) potassium channel, sequence (Q12809 whole entry, looked up): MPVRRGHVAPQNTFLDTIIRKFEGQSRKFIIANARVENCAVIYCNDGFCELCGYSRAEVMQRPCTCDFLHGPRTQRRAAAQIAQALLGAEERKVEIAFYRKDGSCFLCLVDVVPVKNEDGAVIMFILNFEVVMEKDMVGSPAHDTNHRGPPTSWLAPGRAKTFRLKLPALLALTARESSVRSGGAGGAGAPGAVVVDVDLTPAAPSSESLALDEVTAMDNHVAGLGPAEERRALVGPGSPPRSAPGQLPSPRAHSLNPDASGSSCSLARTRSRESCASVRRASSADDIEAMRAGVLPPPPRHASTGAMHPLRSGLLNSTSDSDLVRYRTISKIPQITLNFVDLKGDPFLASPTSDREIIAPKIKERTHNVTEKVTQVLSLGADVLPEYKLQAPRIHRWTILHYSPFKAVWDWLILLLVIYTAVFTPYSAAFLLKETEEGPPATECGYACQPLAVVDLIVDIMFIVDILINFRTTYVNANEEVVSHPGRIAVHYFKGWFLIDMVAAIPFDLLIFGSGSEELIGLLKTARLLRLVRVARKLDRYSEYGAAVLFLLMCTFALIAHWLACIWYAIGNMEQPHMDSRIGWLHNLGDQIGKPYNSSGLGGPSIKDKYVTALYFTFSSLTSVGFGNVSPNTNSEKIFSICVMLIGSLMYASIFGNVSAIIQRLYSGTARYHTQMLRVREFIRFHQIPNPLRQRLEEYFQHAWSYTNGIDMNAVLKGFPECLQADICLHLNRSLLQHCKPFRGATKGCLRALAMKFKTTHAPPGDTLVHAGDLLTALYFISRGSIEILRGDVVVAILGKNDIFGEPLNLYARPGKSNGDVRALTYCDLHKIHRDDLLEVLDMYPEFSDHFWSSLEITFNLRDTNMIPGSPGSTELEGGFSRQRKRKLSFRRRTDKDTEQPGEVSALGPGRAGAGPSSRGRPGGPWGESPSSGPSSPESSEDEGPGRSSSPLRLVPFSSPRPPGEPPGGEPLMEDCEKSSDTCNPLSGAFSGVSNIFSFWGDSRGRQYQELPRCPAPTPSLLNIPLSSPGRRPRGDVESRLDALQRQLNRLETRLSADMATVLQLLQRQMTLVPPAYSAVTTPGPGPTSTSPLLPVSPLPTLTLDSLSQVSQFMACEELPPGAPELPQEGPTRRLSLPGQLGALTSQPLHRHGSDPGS

Row | Compound | hERG current change (%, negative = inhibition) at 10uM [%]
1 | CCCNC(=O)Cc1c(OC)ccc2cc(Br)ccc12 | -0.00892
2 | O=C(Nc1cccc(-c2cccc(Cl)c2)c1)C1CCN(Cc2ccon2)CC1 | -52.7
3 | O=c1c(C(c2ccc(O)cc2)c2c(O)nc3n(c2=O)CCCS3)c(O)nc2n1CCCS2 | -5.63
4 | CN(C)CCN(C(=O)C1=COCCO1)c1nc2ccc(Cl)cc2s1.Cl | -73.1
5 | COc1ccc(CCNC(=O)c2cc3c(=O)n4ccccc4nc3n(CC3CCCO3)c2=N)cc1OC (stereo not drawn) | -78.4
6 | Cc1ccc(NC(=O)N2N=C(c3ccc(F)cc3)CC2c2ccc(F)cc2)cc1 (stereo not drawn) | -12.9
7 | Br.O=S(=O)(c1ccc(C2=CSC3=NCCN23)cc1)N1CCOCC1 | -5.37
8 | Cc1cc2c(cc1S(=O)(=O)NCCc1ccc(Cl)cc1)OCC(=O)N2 | -21.3
9 | CCCCN(C)CCn1c(=S)[nH]c2cc(OCC)c(OCC)cc2c1=O | -55.8
10 | CCn1c(SCC(=O)Nc2nc(-c3ccccc3)cs2)nc2c1c(=O)n(C)c(=O)n2C | 3.14
11 | CCn1c(C)c(P(=O)(N2CCOCC2)N2CCOCC2)c2ccccc21 | 10.1
12 | COCCNC(=S)N1CCC(C(=O)c2ccc3c(c2)OCCO3)CC1 | 32.7
13 | OC(COc1ccccc1)Cn1cc(Br)cn1 (stereo not drawn) | 0.0411
14 | COC(=O)c1cc2ccsc2n1CC(=O)N(C)C1CCCCC1 | 10.5
15 | CCOc1ccc(N(CC(=O)OC)S(=O)(=O)c2c(C)noc2C)cc1 | 2.38
16 | C=CCn1c(=NC(=O)c2ccco2)sc2cc(C(=O)OC)ccc21 | -6
17 | CCOC(=O)/C=C1\SCC(=O)N1CC(=O)NC(C)C | 21.2
18 | CCOC(=O)/C(C#N)=C\c1ccc(OC)c(OC)c1 | 25
19 | COc1ccc(C2C(C#N)C(C#N)N3CCCN23)cc1 (stereo not drawn) | -9.92
20 | COCCN=C1Sc2nc3cc(C)c(C)cc3cc2CN1Cc1cccs1 | -0.0142
21 | COC(=O)c1c(C)oc(C)c1S(=O)(=O)N1CCOCC1 | 15.6
22 | CCO/C(C)=C1\N=C(c2ccc(Cl)cc2)OC1=O | 2.47
23 | COc1ccc(S(=O)(=O)N(C)c2c(C)n(C)n(-c3ccccc3)c2=O)cc1OC | 2.8

Row | Compound | hERG current change (%, negative = inhibition) at 10uM [%]
24 | O=C1NC(c2ccccc2)=C(c2nc3ccccc3s2)C(c2ccc(F)cc2)N1 (stereo not drawn) | 5.2
25 | CCOc1ccc(-c2ccc(/C=C3/C(=N)N4C(C)=CSC4=NC3=O)o2)c([N+](=O)[O-])c1 | 2.92
26 | O=C(c1ccc2c(=O)n(C3CCCC3)c(=S)[nH]c2c1)N1CCN(C2CCCCC2)CC1 | 6.5
27 | CSc1nc(Cl)c(Cc2ccc(OC(C)C)cc2)c(N(C)C)n1 | 2.91
28 | S=C(Nc1ccccc1)N1CCn2cccc2C1c1cccnc1 (stereo not drawn) | -31.1
29 | CC(C)Oc1cccc(C(=O)C2CCCN(Cc3ccc4nonc4c3)C2)c1 (stereo not drawn) | -1.53
30 | Cc1ccc(/C(N)=N/OC(=O)CCc2ccccc2)cc1 | -15.2
31 | Cc1nc(NCc2ccco2)c(C#N)c2c1COC(C)(C)C2 | 9.44
32 | CCOC(=O)c1cc(CO)cc(C(=O)OCC)c1 | 13.9
33 | CC(C)C(NC(=O)C1CCC(C(C)(C)C)CC1)C(=O)NCCCN1CCCCC1 (stereo not drawn) | -24.8
34 | Cc1nnc(NCc2ccco2)s1 | -6.18
35 | CC(=O)NC(C)CCc1ccccc1 (stereo not drawn) | 10.9
36 | Cc1c(C)c(C)c(S(=O)(=O)N2CCNCC2)c(C)c1C.Cl | -11.2
37 | Cc1c(C(=O)NCCC2=CCCCC2)sc2ncnc(N3CCCCC3C)c12 (stereo not drawn) | -5.06
38 | NC(=O)c1ccc(N=Cc2c(O)ccc3ccccc23)cc1 | 12.9
39 | Cn1c(CCC(=O)Nc2ccc(F)cc2)nc2cc(S(=O)(=O)N3CCOCC3)ccc21 | -17.7
40 | Cn1c(=O)n(CCOc2ccccc2Cl)c2ccccc21 | -19.2
41 | C=C(C)Cn1c(CCCNC(=O)CCC)nc2ccccc21 | -4.07
42 | Cc1cccc(C)c1OCC(=O)N1CCc2ccccc2C1 | -1.91
43 | O=C(Nc1ccc(Br)cc1)c1ccccc1Br | -0.663
44 | CCc1ccc(NC(=O)c2ccc3nc(N)sc3c2)cc1 | -9.03
45 | COC(=O)c1ccc(NC(=O)C2CC(=O)N(c3ccc(C)cc3)C2)cc1 (stereo not drawn) | 9.53
